# Assay results from PubChem BioAssay AID686979 (National Center for Advancing Translational Sciences (NCATS), 2013).
# In all, about 420,000 compounds went through this assay and about 50,000 (12%) were called active. Inconclusive results, whose numbers are uncertain, are shown with a selection of clear calls. Calls come from the whole dose curve; as a rule, active = well fitted inhibition curve with a large enough effect; inconclusive = small, poorly fitted or top-dose-only effect; inactive = flat fitted curve, though single readings scatter. Potencies of inconclusive entries are left out as doubtful fits.
# Assay: qHTS for Inhibitors of human tyrosyl-DNA phosphodiesterase 1 (TDP1): qHTS in cells in presence of CPT; note: nearly all actives have a fitted effect of over 55% in size
# Details: chicken DT40 Tdp1-/-;hTDP1 cells + 20 nM CPT, ATP luminescence, 48 h; activity change, negative = growth inhibition: at 46.2 µM (top of the series)
# Outline: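 Cell growth measured by CellTiter-Glo luminescence after a minimum 48 h, 37 C compound exposure with 20 nM CPT in Tdp1-knockout DT40 cells stably expressing hTDP1, seeded 400/well; qHTS titration format.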
# % is set by controls: 0 for no effect and ±100 for the full control effect; potency is the fitted concentration of half-maximal effect; tags give direction and shape of the fitted curve.
Structure (SMILES),Potency,"activity change, negative = growth inhibition"
O=C(Cc1ccccc1F)Nc1nc(-c2ccc(F)cc2)cs1,active: 8.2 µM,
CCn1c(C(=O)N2CCCC(C(=O)O)C2)cc2sccc21 (configuration not stated),,inactive: -12.2%
CC1CCN(CCCCOc2ccccc2Br)CC1,"inconclusive [inhibitor, single point]",
COc1ccc(C(=O)N/N=C/c2ccccc2C(=O)O)cc1OC,,inactive: -5.08%
O=C(CSc1nc2ccccc2c(=O)n1CC1CCCO1)N1CCN(c2ccccc2)CC1 (configuration not stated),active: 25.9 µM,
Oc1ccccc1/C=N/Nc1nccnc1Cl,active: 4.61 µM,
O=C(C1=C[C@@H](c2ccc(Br)cc2)C[C@@H](OCc2ccc(CO)cc2)O1)N1CCN(Cc2ccc3c(c2)OCO3)CC1,"inconclusive [inhibitor, single point]",
COCCN(Cc1cc2cc3c(cc2nc1Cl)OCO3)C(=O)Nc1ccc(OC)cc1,"inconclusive [inhibitor, single point]",
CCc1ccc(C(=O)CSc2nc3cc(S(=O)(=O)N4CCOCC4)ccc3n2CC)cc1,"inconclusive [inhibitor, single point]",
CC1CCN(CCCNC(=O)c2cc3c(=O)n(C)c4ccccc4c3n2C)CC1,active: 23.1 µM,
O=C(N1CCCC1)C12CC3CC(CC(Cl)(C3)C1)C2,"inconclusive [inhibitor, single point]",
Cc1cccnc1Oc1ncccc1N,,inactive: 2.51%
COc1cc(CN2CCN(Cc3ccccc3C(F)(F)F)CC2)cc(OC)c1OC,"inconclusive [inhibitor, single point]",
CCc1nc(NC(=O)c2sc(C)nc2C)sc1C(=O)OC,,inactive: -8.1%
O=C(CC(Nc1ccccc1Cl)C(=O)OCC(=O)c1cccs1)c1ccccc1 (configuration not stated),"inconclusive [inhibitor, single point]",
COc1ccc(C(=O)N/C(=C\c2cn(S(=O)(=O)N(C)C)c3ccccc23)C(=O)NCCN2CCOCC2)cc1OC,,inactive: 6.29%
CC(C)c1ccc(NC(=O)CCNS(=O)(=O)c2cc(Br)cnc2N)cc1,active: 16.4 µM,
O=C(N/N=C/c1ccc(O)c(Br)c1)c1cc2c(ccc3ccccc32)o1,"inconclusive [inhibitor, single point]",
COc1cc2ncnc(NCc3ccccc3F)c2cc1OC,"inconclusive [inhibitor, single point]",
CCCN(CC(=O)Nc1ccccc1OC)C(=O)CC1CCCC1,"inconclusive [inhibitor, single point]",
CCCS(=O)(=O)NC(=O)C1(C)CCCN(C(=O)c2cncc(Br)c2)C1 (configuration not stated),"inconclusive [inhibitor, partial curve, poor fit]",
O=C(CN1C(=O)/C(=C/c2ccccc2F)Sc2ccccc21)NCCCN1CCOCC1,"inconclusive [inhibitor, single point]",
COc1ccc(-n2ccsc2=S)cc1,,inactive: 0.12%
Cc1ccc(F)cc1NC(=O)CSc1nc(-c2cccs2)cc(C(F)(F)F)n1,"inconclusive [inhibitor, single point]",

Structure (SMILES),Potency,"activity change, negative = growth inhibition"
COCCn1c(C)cc(C(=O)CSc2ccc3ccccc3n2)c1C,"inconclusive [inhibitor, single point]",
Cn1ncc2cc(NC(=S)NC(=O)c3ccccc3)ccc21,"inconclusive [inhibitor, single point]",
O=C(O)C1CCC(Cn2c(SCc3cc(=O)n4cc(Cl)ccc4n3)nc3ccsc3c2=O)CC1 (configuration not stated),"inconclusive [inhibitor, single point]",
O=C(Cn1ncc2c([nH]c3ccccc32)c1=O)NCCc1ccc(Cl)cc1,,inactive: -3.38%
NS(=O)(=O)c1ccc(NC(=O)c2cc(=O)c3ccccc3o2)cc1,,inactive: -20.4%
CCOC(=O)C1CCN(C(c2cc3ccc(C)cc3[nH]c2=O)c2nnnn2C2CCCCC2)CC1 (configuration not stated),,inconclusive: -35.9% [inhibitor]
O=C1CCC([N+](=O)[O-])C(c2cc3c(cc2Cl)OCO3)N1 (configuration not stated),,inactive: -3.27%
COC(=O)c1c(-c2ccc(F)cc2)csc1NC(=O)C1CCCO1 (configuration not stated),"inconclusive [inhibitor, single point]",
CC(/C=C/c1ccc2c(c1)OCO2)=N/NC(=O)c1ccc(C)nc1,"inconclusive [inhibitor, single point]",
CCCCN1CC[C@H]2C=CC[C@@H](C(=O)NC3CCCCC3)[C@H]2C1=O,"inconclusive [inhibitor, single point]",
COc1cccc(Nc2nc(-c3sc(NC(=O)c4ccccc4)nc3C)cs2)c1,active: 18.4 µM,
COc1ccc(NC(=O)c2oc3ccccc3c2NC(=O)c2cc3ccccc3o2)c(OC)c1,,inactive: 16.7%
CC(=O)c1cc(F)ccc1OCC(=O)N1CCCc2ccccc21,"inconclusive [inhibitor, single point]",
COc1ccc(C(CNC(=O)c2cccc(S(=O)(=O)N(C)c3ccccc3)c2)N2CCCC2)cc1 (configuration not stated),"inconclusive [inhibitor, single point]",
CCCCOC(=O)NC(NCC(O)c1ccccc1)(C(F)(F)F)C(F)(F)F (configuration not stated),"inconclusive [inhibitor, partial curve]",
Cc1cccc(NC(=O)c2cc([N+](=O)[O-])ccc2Cl)c1O,,inconclusive: -36.5% [inhibitor]
CCOc1ccc(NC(=O)CSc2nnnn2C2CCCC2)cc1,,inactive: -8.9%
CCn1c(SCc2ccc(C)cc2)nnc1-c1cnccn1,,inconclusive: -31% [inhibitor]
O=C(CC1C(=O)NCCN1C(=O)c1ccc([N+](=O)[O-])cc1)Nc1ccc(F)cc1 (configuration not stated),,inactive: 2.71%
Cc1cc(C)n(CCNC(=O)CC2C(=O)NCCN2Cc2ccc(C)o2)n1 (configuration not stated),,inactive: 18%
O=C(NCc1ccccc1)c1c(O)c2cccc3c2n(c1=O)CCC3,"inconclusive [inhibitor, single point]",
CCCCC(CC)CO (configuration not stated),"inconclusive [inhibitor, single point]",
Cn1nc(-c2cccnc2)nc2c(=O)n(C)c(=O)nc1-2,active: 1.12 µM,
